Where “and” joins values, the source holds several entries; their conditions need not be identical. Identical values can stand only once. Counter-ions that a name gives are not always drawn. ± gives the standard deviation of the averaged measurements. The full ranking holds about 2,000 compounds; the median of “relative cell viability vs DMSO, compound alone” is about 1.1, and the lowest 2% start at about 0.29. The list shows a part of the results.
system: TE10; assay: relative cell viability vs DMSO, compound alone (fraction); TE10 is an esophageal squamous carcinoma line; higher = less cytotoxic; details: 2 µM; 48 h
Description: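 TE10 ESCC cells (1,000/well, 384-well plates) were treated with Selleck bioactive library compounds at 2 uM alone for 48 h. Viability was read by CellTiter-Glo and expressed relative to DMSO wells. Two technical replicates (A, B).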

SMILES	relative cell viability
CC(C)N(C[C@H]1O[C@@H](n2cnc3c(N)ncnc32)[C@H](O)[C@@H]1O)[C@H]1C[C@@H](CCc2nc3cc(C(C)(C)C)ccc3[nH]2)C1	1.02 ± 0.1
COC(c1ccccc1)(c1ccccc1)[C@H](Oc1nc(C)cc(C)n1)C(=O)O [Ambrisentan]	1.02 ± 0.04
COc1ccc([C@@H]2CC(=O)c3c(O)cc(O[C@@H]4O[C@H](CO[C@@H]5O[C@@H](C)[C@H](O)[C@@H](O)[C@H]5O)[C@@H](O)[C@H](O)[C@H]4O)cc3O2)cc1O [Hesperidin]	1.02 ± 0.015
O=c1cc(N2CCOCC2)oc2c(-c3cccc4c3sc3ccccc34)cccc12	1.07 ± 0.046
CC(C)(C(=O)O)c1ccc(C(O)CCCN2CCC(C(O)(c3ccccc3)c3ccccc3)CC2)cc1 (stereo unspecified) [Fexofenadine HCl]	1.08 ± 0.038
Cc1cc(C(C)(C)C)c(O)c(C)c1CC1=NCCN1 [Oxymetazoline hydrochloride]	1.15 ± 0.069
Cc1ccc(-c2csc(NC(=O)c3ccccc3)n2)c(C)c1	1.15 ± 0.044
O=C[C@H](O)[C@@H](O)[C@H](O)CO [Xylose]	1.09 ± 0.049
CC(=O)O[C@]1(C(C)=O)CC[C@H]2[C@@H]3C[C@H](C)C4=CC(=O)C=C[C@]4(C)[C@@]3(F)[C@@H](O)C[C@@]21C [Fluorometholone Acetate]	0.914 ± 0.099
O=C(O)c1cccnc1Nc1cccc(C(F)(F)F)c1 [Niflumic acid]	1.03 ± 0.044
Cc1oncc1C(=O)Nc1ccc(C(F)(F)F)cc1 [Leflunomide]	1.01 ± 0.021
CC1CC(OC(=O)C(O)c2ccccc2)CC(C)(C)C1 (stereo unspecified) [Cyclandelate]	1.059 ± 0.0051
CCOC(=O)[C@H](CCc1ccccc1)N[C@@H](C)C(=O)N1Cc2ccccc2C[C@H]1C(=O)O [Quinapril HCl]	1.01 ± 0.053
NC1(C(=O)N[C@@H](CCO)c2ccc(Cl)cc2)CCN(c2ncnc3[nH]ccc23)CC1	0.821 ± 0.07
CC(CCc1ccccc1)NCC(O)c1ccc(O)c(C(N)=O)c1 (stereo unspecified) [Labetalol HCl]	1.08 ± 0.012
Cc1cn([C@H]2O[C@@H](CO)[C@H](O)[C@H]2F)c(=O)[nH]c1=O [Clevudine]	0.979 ± 0.045
Cc1cc(NC(=O)Nc2ccc(N(C)C)cc2)c2cc(F)cc(F)c2n1	1.04 ± 0.034
Cc1onc(-c2c(Cl)cccc2Cl)c1C(=O)N[C@@H]1C(=O)N2[C@@H]1SC(C)(C)[C@@H]2C(=O)O [Dicloxacillin Sodium]	0.942 ± 0.14
Cn1cc(-c2ccc3ncc(Cc4ccc5ncccc5c4)n3n2)cn1	1.13 ± 0.055
CC1C(=O)OC2C(O)C34C5CC(C(C)(C)C)C36C(OC(=O)C6O)OC4(C(=O)O5)C12O (stereo unspecified) [Ginkgolide B]	1.19 ± 0.045
CN(C)/N=N/c1[nH]cnc1C(N)=O [Dacarbazine]	1.17 ± 0.036
CC(C)OC(=O)[C@H](C)N[P@](=O)(OC[C@H]1O[C@@H](n2ccc(=O)[nH]c2=O)[C@](C)(F)[C@@H]1O)Oc1ccccc1 [Sofosbuvir (PSI-7977, GS-7977)]	1.09 ± 0.097
Nc1nc2c(ncn2[C@@H]2O[C@H](CO)[C@@H](O)[C@H]2O)c(=O)[nH]1 [Guanosine]	1.06 ± 0.032
CC1(C)S[C@@H]2[C@H](NC(=O)[C@H](NC(=O)N3CCNC3=O)c3ccccc3)C(=O)N2[C@H]1C(=O)O [Azlocillin sodium salt]	1.09 ± 0.026

SMILES	relative cell viability
O=C1[C@H](Cc2ccc(O)cc2)N2C(=O)CCN(C(=O)NCc3ccccc3)[C@H]2CN1Cc1cccc2ccccc12	0.723 ± 0.061
CCn1c2ccccc2c2cc(Nc3ccnc(NCCCN4CCOCC4)n3)ccc21	1.2 ± 0.076
CNC(=O)c1cccc(-c2ccc3c(N4CCOC[C@@H]4C)nc(N4CCOC[C@@H]4C)nc3n2)c1	0.528 ± 0.03
C=CCNC(N)=S [Allylthiourea]	1.17 ± 0.032
CN(C)CCOC(C)(c1ccccc1)c1ccccn1 (stereo unspecified) [Doxylamine Succinate]	1.14 ± 0.021
COc1cccc(-c2cc(=O)c3ccccc3o2)c1N	1.01 ± 0.071
CC(C)(C#N)c1cc(Cn2cncn2)cc(C(C)(C)C#N)c1 [Anastrozole]	1.12 ± 0.061
COc1cc2nccc(Oc3ccc(NC(=O)Nc4cc(C)on4)c(Cl)c3)c2cc1OC [Tivozanib (AV-951)]	1.18 ± 0.074
C[C@@H](O)[C@H]1C(=O)N2C(C(=O)O)=C(S[C@@H]3CN[C@H](CNS(N)(=O)=O)C3)[C@H](C)[C@H]12 [Doripenem Hydrate]	1.12 ± 0.095
O=C(Nc1ccccc1C(=O)NC1CCCCNC1=O)c1cc2ccccc2s1 (stereo unspecified)	0.924 ± 0.17
Nc1ccn([C@H]2CC[C@@H](CO)O2)c(=O)n1 [Zalcitabine]	1.04 ± 0.029
CCc1cc(Nc2nccc(-c3c(-c4ccc(OC)c(C(=O)Nc5c(F)cccc5F)c4)nc4ccccn34)n2)c(OC)cc1N1CCC(N2CCN(S(C)(=O)=O)CC2)CC1	1.2 ± 0.095
CC(S)C(=O)NCC(=O)O (stereo unspecified) [Tiopronin]	1.16 ± 0.015
CNCc1ccc(-c2cc(-c3nc(-c4ccc(S(=O)(=O)C(C)C)cc4)cnc3N)on2)cc1	0.881 ± 0.054
CN1CCN(CCCN2c3ccccc3Sc3ccc(C(F)(F)F)cc32)CC1 [Trifluoperazine 2HCl]	1.02 ± 0.028
O=C(NCc1ccccc1)c1csc(Nc2ccncn2)n1 [Thiazovivin]	1.23 ± 0.048
CNC[C@H](O)c1ccc(O)c(O)c1 [Epinephrine HCl]	1.115 ± 0.005
CNC[C@H](O)c1ccc(O)c(O)c1 [Epinephrine Bitartrate]	1.12 ± 0.13
CN(CC(=O)N(Cc1ccc(C2CCCCC2)cc1)c1ccc(C(=O)O)cc1)S(=O)(=O)c1c(F)c(F)c(F)c(F)c1F	1.01 ± 0.013
OC(CNCC(O)C1CCc2cc(F)ccc2O1)C1CCc2cc(F)ccc2O1 (stereo unspecified) [Nebivolol]	0.9529 ± 0.0084
O=C(CCc1ccc(O)cc1)c1c(O)cc(O)cc1O [Phloretin]	1.202 ± 0.001
CC[C@H](C)[C@H](N)C1=N[C@H](C(=O)N[C@@H](CC(C)C)C(=O)N[C@H](CCC(=O)O)C(=O)N[C@H](C(=O)N[C@H]2CCCCNC(=O)[C@H](CC(N)=O)NC(=O)[C@@H](CC(=O)O)NC(=O)[C@H](Cc3cnc[nH]3)NC(=O)[C@@H](Cc3ccccc3)NC(=O)[C@H]([C@@H](C)CC)NC(=O)[C@@H](CCCN)NC2=O)[C@@H](C)CC)CS1 [Bacitracin]	1.14 ± 0.048
O=C(O)c1cc(/N=N/c2ccc(O)c(C(=O)O)c2)ccc1O [Olsalazine Sodium]	1.12 ± 0.12
O=C(Nc1ccccc1-c1cn2c(CN3CCNCC3)csc2n1)c1cnc2ccccc2n1	1.18 ± 0.1

SMILES	relative cell viability
CNC(=O)c1cc(Oc2ccc(NC(=O)Nc3ccc(Cl)c(C(F)(F)F)c3)c(F)c2)ccn1 [Regorafenib (BAY 73-4506)]	1.15 ± 0.043
CC(C)(C)NCC(O)COc1cccc2c1CCC(=O)N2 (stereo unspecified) [Carteolol HCl]	1.09 ± 0.15
CN(C)CC(=O)Nc1ccc2[nH]c(=O)c3ccccc3c2c1	1.11 and 1.05
CC(C)C[C@H](NC(=O)[C@@H](NC(=O)c1cccc(-c2ccccc2)n1)[C@@H](C)O)B(O)O	0.0932 ± 0.003
OC[C@H]1O[C@H](O[C@]2(CCl)O[C@H](CCl)[C@@H](O)[C@@H]2O)[C@H](O)[C@@H](O)[C@H]1Cl [Sucralose]	1.107 ± 0.0098
CNC(=O)c1cc(Oc2ccc(NC(=O)Nc3cc(C(C)(C)C)nn3-c3ccc4ncccc4c3)c(F)c2)ccn1 [DCC-2036 (Rebastinib)]	1.05 ± 0.093
COc1ccc2c(c1)c(CC(=O)O)c(C)n2C(=O)c1ccc(Cl)cc1 [Indomethacin]	1.08 ± 0.039
CN1CCC(=C2c3ccccc3CCc3cccnc32)CC1 [Azatadine dimaleate]	1.07 ± 0.013
Nc1nc2ccc(OC(F)(F)F)cc2s1 [Riluzole]	1.14 ± 0.075
COc1cc(C=CC(=O)N2CCC=CC2=O)cc(OC)c1OC [Piperlongumine]	0.948 ± 0.024
O=C(C1CCCCC1)N1CC(=O)N2CCc3ccccc3C2C1 (stereo unspecified) [Praziquantel]	0.9499 ± 0.0021
C[C@@H]1CCO[C@H]2Cn3cc(C(=O)NCc4ccc(F)cc4F)c(=O)c(O)c3C(=O)N12	1.16 ± 0.064
C[C@]1(O)C[C@@H](c2nc(-c3ccc4ccc(-c5ccccc5)nc4c3)c3c(N)nccn32)C1 [OSI-906 (Linsitinib)]	1.202 ± 0.0014
C[C@H]1O[C@@H](O[C@H]2[C@@H](O)C[C@H](O[C@H]3[C@@H](O)C[C@H](O[C@H]4CC[C@@]5(C)[C@H](CC[C@@H]6[C@@H]5C[C@@H](O)[C@]5(C)[C@@H](C7=CC(=O)OC7)CC[C@]65O)C4)O[C@@H]3C)O[C@@H]2C)C[C@H](O)[C@@H]1O [Digoxin]	0.603 ± 0.013
Cc1c(OCC(F)(F)F)ccnc1C[S@@+]([O-])c1nc2ccccc2[nH]1 [Dexlansoprazole]	1.06 ± 0.061
CC[C@H]1OC(=O)[C@H](C)[C@@H](O[C@H]2C[C@@](C)(OC)[C@@H](O)[C@H](C)O2)[C@H](C)[C@@H](O[C@@H]2O[C@H](C)C[C@H](N(C)C)[C@H]2O)[C@](C)(O)C[C@@H](C)C(=O)[C@H](C)[C@H]2OC(=O)O[C@@]21C [Erythromycin Cyclocarbonate]	1.12 ± 0.073
Cc1cc(O)c2c(c1)C(=O)c1cccc(O)c1C2=O [Chrysophanic Acid]	0.955 ± 0.042
NC(=O)c1cn(Cc2c(F)cccc2F)nn1 [Rufinamide]	1.13 ± 0.12
CC(C(=O)O)c1ccc(-c2ccccc2)c(F)c1 (stereo unspecified) [Flurbiprofen]	0.958 ± 0.057
NC(=O)c1ccc(-c2nc(-c3ccc4c(c3)OCCO4)c(-c3ccccn3)[nH]2)cc1	1.02 ± 0.052
O=C1NC(=NCc2cccs2)S/C1=C\c1ccc2ncccc2c1	1.03 ± 0.012
Cc1ccccc1C(=O)Nc1ccc(C(=O)N2CCCC(O)c3cc(Cl)ccc32)c(C)c1 (stereo unspecified) [Tolvaptan]	0.996 ± 0.025
CN(C)C(=O)C(CCN1CCC(O)(c2ccc(Cl)cc2)CC1)(c1ccccc1)c1ccccc1 [Loperamide HCl]	0.99852 ± 0.00021

From the supplement of paper PMC10670038
